{"source": "patent US9126931B2", "about": "(priority 2009, dated 2015)", "data": [{"tested_on": "Human lymphoma cell line KARPAS-299", "assay": "cells", "settings": "KARPAS-299, 96 h, read-out: Inhibitory activity on Karpas-299 cell growth IC50", "units": {"IC50": "nM"}, "values": [{"compound": "CC1(C)c2cc(OCCC3CCN(C4COC4)CC3)ccc2C(=O)c2c1[nH]c1cc(C#N)ccc21", "note": "[Compound A8-21, 6,6-Dimethyl-8-[2-(1-oxetan-3-yl-piperidin-4-yl)-ethoxy]-11-oxo-6,11-dihydro-5H-benzo[b]carbazole-3-carbonitrile]", "IC50": 105}, {"compound": "CC1(C)c2cc(OCCN(CCO)CCO)ccc2C(=O)c2c1[nH]c1cc(C#N)ccc21", "note": "[Compound A8-15, 8-{2-[Bis-(2-hydroxy-ethyl)-amino]-ethoxy}-6,6-dimethyl-11-oxo-6,11-dihydro-5H-benzo[b]carbazole-3-carbonitrile]", "IC50": 232}, {"compound": "CC1(C)c2cc(N3CCN(C4CCSCC4)CC3)c(Br)cc2C(=O)c2c1[nH]c1cc(C#N)ccc21", "note": "[Compound F4-6, 9-Bromo-6,6-dimethyl-11-oxo-8-[4-(tetrahydro-thiopyran-4-yl)-piperazin-1-yl]-6,11-dihydro-5H-benzo[b]carbazole-3-carbonitrile]", "IC50": 29.1}, {"compound": "CCN(CC)CCOc1ccc2c(c1)C(C)(C)c1[nH]c3cc(NC(=O)Oc4cccc(C(F)(F)F)c4)ccc3c1C2=O", "note": "[GT5-12, [8-(2-Diethylamino-ethoxy)-6,6-dimethyl-11-oxo-6,11-dihydro-5H-benzo[b]carbazol-3-yl]-carbamic acid 3-trifluoromethyl-phenyl ester]", "IC50": 20000}, {"compound": "C=C(C)c1cc2c(cc1N1CCN(C3COC3)CC1)C(C)(C)c1[nH]c3cc(C#N)ccc3c1C2=O", "note": "[Compound F5-32, 9-Isopropenyl-6,6-dimethyl-8-(4-oxetan-3-yl-piperazin-1-yl)-11-oxo-6,11-dihydro-5H-benzo[b]carbazole-3-carbonitrile]", "IC50": 24}, {"compound": "CC(=O)OC[C@H]1OC(C)(C)O[C@@H]1COc1ccc2c(c1)C(C)(C)c1[nH]c3cc(Br)ccc3c1C2=O", "note": "[Compound T22-1-2, Acetic acid (3R,4R)-5-(3-bromo-6,6-dimethyl-11-oxo-6,11-dihydro-5H-benzo[b]carbazol-8-yloxymethyl)-2,2-dimethyl[1,3]dioxolan-4-ylmethyl ester]", "IC50": 1780}, {"compound": "CCN(CC)CCOc1ccc2c(c1)C(C)(C)c1[nH]c3cc(NC(=O)Nc4cccc(C(F)(F)F)c4)ccc3c1C2=O", "note": "[GT5-11, 1-[8-(2-Diethylamino-ethoxy)-6,6-dimethyl-11-oxo-6,11-dihydro-5H-benzo[b]carbazol-3-yl]-3-(3-trifluoromethyl-phenyl)-urea]", "IC50": 1960}, {"compound": "CC(C)(C)OC(=O)NCCOc1ccc2c(c1)C(C)(C)c1[nH]c3cc(C#N)ccc3c1C2=O", "note": "[Compound A7-3, [2-(3-Cyano-6,6-dimethyl-11-oxo-6,11-dihydro-5H-benzo[b]carbazol-8-yloxy)-ethyl]-carbamic acid tert-butyl ester]", "IC50": 114}, {"compound": "CC1(C)c2cc(CN3CCOCC3)ccc2C(=O)c2c1[nH]c1cc(C#N)ccc21", "note": "[Compound B3-32, 6,6-Dimethyl-8-morpholin-4-yl methyl-11-oxo-6,11-dihydro-5H-benzo[b]carbazole-3-carbonitrile]", "IC50": 65.2}, {"compound": "COCCOCCN1CCN(c2cc3c(cc2Br)C(=O)c2c([nH]c4cc(C#N)ccc24)C3(C)C)CC1", "note": "[Compound F4-4, 9-Bromo-8-{4-[2-(2-methoxy-ethoxy)-ethyl]-piperazin-1-yl}-6,6-dimethyl-11-oxo-6,11-dihydro-5H-benzo[b]carbazole-3-carbonitrile]", "IC50": 7.1}, {"compound": "CSCCOc1ccc2c(c1)C(C)(C)c1c(c3ccc(C#N)cc3n1CCSC)C2=O", "note": "[Compound A7-5, 6,6-Dimethyl-8-(2-methylsulfanyl-ethoxy)-5-(2-methylsulfanyl-ethyl)-11-oxo-6,11-dihydro-5H-benzo[b]carbazole-3-carbonitrile]", "IC50": 627}, {"compound": "CC1(C)c2cc(N3CCN(C4COC4)CC3)c(C#CCN3CCS(=O)(=O)CC3)cc2C(=O)c2c1[nH]c1cc(C#N)ccc21", "note": "[Compound F5-31, 9-[3-(1,1-Dioxo-1λ6-thiomorpholin-4-yl)-prop-1-ynyl]-6,6-dimethyl-8-(4-oxetan-3-yl-piperazin-1-yl)-11-oxo-6,11-dihydro-5H-benzo[b]carbazole-3-carbonitrile]", "IC50": 72.7}, {"compound": "CC1(C)c2cc(OCCO)ccc2C(=O)c2c1[nH]c1cc(C#N)ccc21", "note": "[Compound A7-12, 8-(2-Hydroxyethoxy)-6,6-dimethyl-11-oxo-6,11-dihydro-5H-benzo[b]carbazole-3-carbonitrile]", "IC50": 112}, {"compound": "CC(C)N1CCC(Cc2ccc3c(c2)C(C)(C)c2[nH]c4cc(C#N)ccc4c2C3=O)CC1", "note": "[Compound B2-27, 8-(1-Isopropyl-piperidin-4-ylmethyl)-6,6-dimethyl-11-oxo-6,11-dihydro-5H-benzo[b]carbazole-3-carbonitrile]", "IC50": 13.8}, {"compound": "CC(C)Oc1cc2c(cc1OC1CCCN(C(C)C)C1)C(C)(C)c1[nH]c3cc(C#N)ccc3c1C2=O", "note": "(centres unmarked) [Compound L10-8, 9-Isopropoxy-8-(1-isopropyl-piperidin-3-yloxy)-6,6-dimethyl-11-oxo-6,11-dihydro-5H-benzo[b]carbazole-3-carbonitrile]", "IC50": 24}, {"compound": "CC1(C)c2cc(OC3CCOC34CCN(S(C)(=O)=O)CC4)ccc2C(=O)c2c1[nH]c1cc(Br)ccc21", "note": "(centres unmarked) [Compound T16-3, 3-Bromo-8-(8-methanesulfonyl-1-oxa-8-aza-spiro[4.5]decan-4-yloxy)-6,6-dimethyl-5,6-dihydro-benzo[b]carbazol-11-one]", "IC50": 2250}, {"compound": "CCN1CCN(CCOc2ccc3c(c2)C(C)(C)c2[nH]c4cc(C#N)ccc4c2C3=O)CC1", "note": "[Compound A8-13, 8-[2-(4-Ethyl-piperazin-1-yl)-ethoxy]-6,6-dimethyl-11-oxo-6,11-dihydro-5H-benzo[b]carbazole-3-carbonitrile]", "IC50": 22.6}, {"compound": "C#Cc1cc2c(cc1N1CCN(S(C)(=O)=O)CC1)C(C)(C)c1[nH]c3cc(C#N)ccc3c1C2=O", "note": "[Compound F5-1, 9-Ethynyl-8-(4-methanesulfonyl-piperazin-1-yl)-6,6-dimethyl-11-oxo-6,11-dihydro-5H-benzo[b]carbazole-3-carbonitrile]", "IC50": 9.1}, {"compound": "CC(C)OCC#Cc1cc2c(cc1N1CCN(C3COC3)CC1)C(C)(C)c1[nH]c3cc(C#N)ccc3c1C2=O", "note": "[Compound F6-13, 9-(3-Isopropoxy-prop-1-ynyl)-6,6-dimethyl-8-(4-oxetan-3-yl-piperazin-1-yl)-11-oxo-6,11-dihydro-5H-benzo[b]carbazole-3-carbonitrile]", "IC50": 7.9}, {"compound": "COc1ccc(COc2ccc3c(c2)C(=O)c2c([nH]c4cc(Br)ccc24)C3(C)C)cc1", "note": "[JJ10-3, 3-Bromo-9-(4-methoxy-benzyloxy)-6,6-dimethyl-5,6-dihydro-benzo[b]carbazol-11-one]", "IC50": 6060}, {"compound": "CC1(C)c2nc(OS(=O)(=O)C(F)(F)F)ccc2C(=O)c2c1[nH]c1cc(C#N)ccc21", "note": "[EZ9-1, Trifluoro-methanesulfonic acid 8-cyano-11,11-dimethyl-5-oxo-10,11-dihydro-5H-pyrido[2,3-b]carbazol-2-yl ester]", "IC50": 16600}, {"compound": "CCN(CC)CCOc1ccc2c(n1)C(C)(C)c1oc3cc(C#N)ccc3c1C2=O", "note": "[EZ9-5, 2-(2-Diethylamino-ethoxy)-11,11-dimethyl-5-oxo-5,11-dihydro-benzo[4,5]furo[3,2-g]quinoline-8-carbonitrile]", "IC50": 13400}, {"compound": "CC1(C)c2cc(N3CCOCC3)c(C#CCN3CCN(C4CC4)CC3)cc2C(=O)c2c1[nH]c1cc(C#N)ccc21", "note": "[Compound F5-10, 9-[3-(4-Cyclopropyl-piperazin-1-yl)-prop-1-ynyl]-6,6-dimethyl-8-morpholin-4-yl-11-oxo-6,11-dihydro-5H-benzo[b]carbazole-3-carbonitrile]", "IC50": 13.5}, {"compound": "CCN(CC)CCOc1ccc2c(c1)C(C)(C)c1[nH]c3cc(NC(=O)COc4ccccc4)ccc3c1C2=O", "note": "[GT5-13, N-[8-(2-Diethylamino-ethoxy)-6,6-dimethyl-11-oxo-6,11-dihydro-5H-benzo[b]carbazol-3-yl]-2 phenoxy-acetamide]", "IC50": 1330}, {"compound": "CC1(C)c2cc(OC[C@H](O)CO)ccc2C(=O)c2c1[nH]c1cc(-c3cncs3)ccc21", "note": "[GT9-6, 8-((R)-2,3-Dihydroxy-propoxy)-6,6-dimethyl-3-thiazol-5-yl-5,6-dihydro-benzo[b]carbazol-11-one]", "IC50": 2660}, {"compound": "CCN(CC)CCOc1ccc2c(c1)C(C)(C)c1[nH]c3cc(N(C)C(=O)COc4ccccc4)ccc3c1C2=O", "note": "[GT5-18, N-[8-(2-Diethylamino-ethoxy)-6,6-dimethyl-11-oxo-6,11-dihydro-5H-benzo[b]carbazol-3-yl]-N methyl-2-phenoxy-acetamide]", "IC50": 4260}, {"compound": "CC1(C)c2cc(N3CCN(C4COC4)CC3)c(C#CC3CCCC3)cc2C(=O)c2c1[nH]c1cc(C#N)ccc21", "note": "[Compound F5-21, 9-Cyclopentylethynyl-6,6-dimethyl-8-(4-oxetan-3-ylpiperazin-1-yl)-11-oxo-6,11-dihydro-5H-benzo[b]carbazole-3-carbonitrile]", "IC50": 66.3}, {"compound": "CCN(CC)CCOc1ccc2c(c1)C1(CCNCC1)c1[nH]c3ccccc3c1C2=O", "note": "[Compound X5, 8-(2-Diethylaminoethoxy)-6,6-spiro-4-piperidine-8-hydroxy-5,6-dihydro-benzo[b]carbazol-11-one]", "IC50": 2880}, {"compound": "CC1(C)c2cc(OC[C@@H](O)[C@H](O)CO)ccc2C(=O)c2c1oc1cc(OC(=O)Nc3ccccc3)ccc21", "note": "[GT13-24, Phenyl-carbamic acid 6,6-dimethyl-11-oxo-8-((2R,3R)-2,3,4-trihydroxy-butoxy)-6,11-dihydro-benzo[b]naphtho[2,3-d]furan-3-yl ester]", "IC50": 3950}, {"compound": "CC1(C)c2cc(N3CCN(C4CCC4)CC3)c(C3CC3)cc2C(=O)c2c1[nH]c1cc(C#N)ccc21", "note": "[Compound F5-46, 8-(4-Cyclobutyl-piperazin-1-yl)-9-cyclopropyl-6,6-dimethyl-11-oxo-6,11-dihydro-5H-benzo[b]carbazole-3-carbonitrile]", "IC50": 28.9}, {"compound": "CC1(C)c2cc(OCC(=O)N3CCN(S(C)(=O)=O)CC3)ccc2C(=O)c2c1[nH]c1cc(Br)ccc21", "note": "[Compound T13-6, 3-Bromo-8-[2-(4-methanesulfonyl-piperazin-1-yl)-2-oxo-ethoxy]-6,6-dimethyl-5,6-dihydro-benzo[b]carbazol-11-one]", "IC50": 1290}, {"compound": "CC1(C)c2cc(OC[C@@H](O)[C@H](O)CO)ccc2C(=O)c2c1oc1cc(Oc3ncccn3)ccc21", "note": "[GT13-33, 6,6-Dimethyl-3-(pyrimidin-2-yloxy)-8-((2R,3R)-2,3,4-trihydroxy-butoxy)-6H-benzo[b]naphtho[2,3-d]furan-11-one]", "IC50": 10900}]}]}
